Test results: PubChem BioAssay AID1347073 (National Center for Advancing Translational Sciences (NCATS), 2019)
Hit rate of the full screen: of about 45,000 compounds, about 200 (0.44%) were called active. About 7% were inconclusive and are not listed. The call rests on the fitted dose curve; in most records, active means well fitted activation curve with a large enough effect; inconclusive means small, poorly fitted or top-dose-only effect; inactive means no such curve, though single readings can be large or run the other way. Some of the results follow.

Assay: qHTS of TDP-43 Inhibitors: NCGC Sytravon Library Screen; further: 0% is about no effect; nearly all actives have a fitted effect of over 55% in size
Conditions: yeast TDP-43 toxicity rescue, BacTiter-Glo growth, 24 h; series mostly up to 46.1 µM; growth rescue (activation): at the top concentration
How it was run: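 TDP-43-expressing yeast, pregrown in raffinose, seeded at OD600 0.02 in galactose medium with compound for 24 hr at 30 deg C. Growth read by BacTiter-Glo luminescence, so rescue of toxicity appears as activation.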

Row | Structure (SMILES) | growth rescue (activation)
1 | COc1ccc(C(=O)N2CCN(CCNC(=O)C(=O)Nc3ccc(Br)cc3)CC2)cc1 | inactive: 27.7%
2 | CC(C)NCC(O)COC1C2CC3CC(C2)CC1C3 (configuration not stated) | inactive: 3.48%
3 | COC(=O)c1ccccc1NS(=O)(=O)c1ccc(Cl)nc1 | inactive: 1.64%
4 | Cc1cc(C(=O)CCC(=O)N2CCN(S(=O)(=O)c3cccs3)CC2)c(C)s1 | inactive: 26.5%
5 | O=C(OCC(=O)N(C1CCCCC1)C1CCCCC1)c1ccc(O)cc1 | inactive: 9.99%
6 | CCOC(CNC(=O)c1nnc(Cc2cc(OC)c(OC)c(OC)c2)o1)OCC | inactive: 12.6%
7 | COc1cccc(CN2CCC(C(=O)N3CCN(c4ccccc4F)CC3)CC2)c1OC | inactive: -16.1%
8 | COc1ccc(C2Nc3ccccc3C(=O)N2NS(=O)(=O)c2ccccc2)cc1OC (configuration not stated) | inactive: -0.889%
9 | CC1CCN(CC(=O)Nc2ccccc2C(=O)c2ccccc2)CC1 | inactive: -0.865%
10 | CCOc1ccc(CN2CCN(Cc3cccn3-c3nccs3)CC2CCO)cc1 (configuration not stated) | inactive: -5.79%
11 | NC(=O)COC(=O)c1ccccc1OCc1ccccc1 | inactive: 4.68%
12 | COc1ccc(CCNC(=O)C(C)OC(=O)c2cccs2)cc1OC (configuration not stated) | inactive: -4.28%
13 | Cc1ccc(-c2nnnn2C2C/C(=N\NC(N)=S)C3OCC2O3)cc1 (configuration not stated) | inactive: 10.2%
14 | O=C(O)C1CCCCC1C(=O)NCCCN1CCCC1=O (configuration not stated) | inactive: -7.39%
15 | O=C(Nc1nnc(-c2cccc(F)c2)s1)Nc1ccccc1F | inactive: 3.25%
16 | Cc1cccc(OCC(=O)Nc2ccc(C(=O)O)cc2NC(=O)COc2cccc(C)c2)c1 | inactive: -12.6%
17 | COCCN(C(=S)Nc1c(C)cc(C)cc1C)C(C)c1cccnc1 (configuration not stated) | inactive: 12.1%
18 | CC1=C(C(=O)N2CCN(c3cc(C)ccc3C)CC2)C2(CCC(C)CC2)OC1=O (configuration not stated) | inactive: 3.98%
19 | O=C1CC(C(=O)Nc2ccc(F)cc2)S/C(=N\N=C\c2ccco2)N1 (configuration not stated) | inactive: 15.7%
20 | O=C(NCc1ccccc1)Nc1nnc([C@@H]2C[C@H](O)[C@@H](CO)O2)s1 | inactive: -13.6%
21 | COc1ccc(-c2noc(CNC(=O)c3ccc4c(c3)OCO4)n2)cc1OC | inactive: -14.9%
22 | CC(OC(=O)c1ccccc1)C(=O)NCCC1=CCCCC1 (configuration not stated) | inactive: 28.4%

Row | Structure (SMILES) | growth rescue (activation)
23 | CCOP(=O)(OCC)c1nc(-c2ccc(Cl)cc2)oc1NCc1ccccc1 | inactive: 0.605%
24 | COc1cc(/C=N/NC(=O)COc2ccc(-n3cnnn3)cc2)ccc1OCC(N)=O | inactive: -3.13%
25 | CCOC(=O)N1CCN(C(=O)CCC(=O)c2ccc(OCC)cc2)CC1 | inactive: 15.8%
26 | Cc1cccc(NC(=O)c2cc(NC(=O)C3CCCCC3C(=O)O)ccc2N2CCOCC2)c1 (configuration not stated) | inactive: 6.11%
27 | CCc1ccc(C(=O)CN2C(=O)C(C)N(c3ccc(C)cc3)C2=O)cc1 (configuration not stated) | inactive: 11%
28 | CCC(=O)c1ccc(OCc2ccc(C(=O)OC)cc2)cc1 | inactive: 16%
29 | Cc1ccc(S(=O)(=O)NC(=O)C2(C)CCN2C(=O)C2CC2)cc1 (configuration not stated) | inactive: 6.73%
30 | COc1ccc(S(=O)(=O)Nc2cc(C)on2)cc1 | inactive: 32.1%
31 | CCc1nc2c(OCCOc3ccc(F)cc3)cccn2c1N(C)C(=O)C(C)C | inactive: 12.7%
32 | O=C(NC(N1CCOCC1)C(Cl)(Cl)Cl)c1ccccc1Cl (configuration not stated) | inactive: -3.6%
33 | Cc1ccc(C(=O)COC(=O)CNC(=O)CN2C(=O)c3ccccc3C2=O)cc1 | inactive: 10.7%
34 | COc1cc(/C=N/NC(=O)c2cc(C)oc2C)ccc1O | inactive: 29.7%
35 | O=C(c1cccs1)c1cn(CCOc2ccccc2F)c2ccccc12 | inactive: 17.8%
36 | COc1ccc(N2C(=O)C3CCCN3C2=S)cc1 (configuration not stated) | inactive: -16.2%
37 | O=C(C1CCN(S(=O)(=O)c2ccccc2)CC1)N1CCN(Cc2ccc3c(c2)OCO3)CC1 | inactive: 13%
38 | CC(=C/c1ccccc1)/C=N/N1CCN(Cc2ccc(C)cc2)CC1 | inactive: 9.44%
39 | Cc1ccsc1C(=O)C1CCCN(Cc2cn(C)nc2-c2ccccc2)C1 (configuration not stated) | inactive: 0.601%
40 | O=C(NCc1ccc(Cl)cc1)c1ccc(CSc2nc3ccncc3[nH]2)cc1 | inactive: 13.1%
41 | CC1CCCCN1S(=O)(=O)c1ccc(N(C(=O)c2cnccn2)C(C(=O)NC2CCCCC2)c2cccs2)cc1 (configuration not stated) | inactive: 14.2%
42 | COc1ccc(O)c(/C=N/N2CCCCC2)c1 | inactive: -9.45%
43 | COc1ccccc1NC(=O)Cn1c(CCC(=O)O)ccc1-c1ccc(C)cc1 | inactive: 14.3%
44 | Cc1c(NC(=O)c2ccc(Cl)c(S(=O)(=O)N3CCCCC3)c2)c(=O)n(-c2ccccc2)n1C | inactive: 0.675%

Row | Structure (SMILES) | growth rescue (activation)
45 | Cc1cc(S(=O)(=O)NC2CCCCC2)ccc1OCC(=O)NCC1CCCO1 (configuration not stated) | inactive: -3.13%
46 | Cn1ncc(Cl)c1C(=O)NCc1ccco1 | inactive: 9.37%
47 | O=C(CCCc1nc2ccccc2s1)Nc1ccccc1 | inactive: 29.5%
48 | CCOCCc1nnc(NC(=O)CS(=O)(=O)c2ccc(C)cc2)s1 | inactive: 0.521%
49 | O=C(CCN=C1NS(=O)(=O)c2ccccc21)NCc1ccccc1F | inactive: 10.2%
50 | COC(=O)c1cc2oc3ccccc3c2n1Cc1ccc(C)cc1 | inactive: 15.8%
51 | COc1ccnc(N=CNOCc2ccc(Cl)cc2)c1C#N | inactive: 26.1%
52 | COc1ccc(OC)c(CNCc2ccc3c(c2)OCO3)c1 | inactive: -2.71%
53 | O=C(Nc1nnc(-c2ccccc2)s1)c1ccccc1O | inactive: -0.541%
54 | O=S1(=O)c2ccccc2Nc2ccccc21 | inactive: 6.33%
55 | Cc1ccc(CSc2nnc(SCC(=O)N/N=C/c3c(C)nn(-c4ccccc4)c3C)s2)cc1 | inactive: -12.5%
56 | Cc1cc(N2CCOCC2)nc2ccc(NC(=O)CCC(=O)N3CCN(c4ccccc4)CC3)cc12 | inactive: 10.5%
57 | CC[n+]1c(/C=C/C=C/N(C(C)=O)c2ccccc2)sc2ccccc21 | inactive: -3.78%
58 | CC(=O)Nc1cccc(NC(=O)c2ccc(Br)cc2)c1 | inactive: 3.31%
59 | COc1ccc(OC)c(S(=O)(=O)Nc2ccc3c(c2)n(C)c(=O)n3C)c1 | inactive: 1.78%
60 | CCOC(=O)c1c(C)oc2ccc(N(C(=O)c3ccncc3)S(=O)(=O)c3ccc(CC)cc3)cc12 | inactive: 6.83%
61 | CC(C)CCN1CCN(Cc2ccc(Oc3ncccn3)cc2)CC1CCO (configuration not stated) | inactive: 4.88%
62 | CC1(c2ccccc2)NC(=O)N(CC(=O)Nc2cc(S(=O)(=O)N3CCOCC3)ccc2Cl)C1=O (configuration not stated) | inactive: 14.3%
63 | CC(C)C1Nc2ccc(S(=O)(=O)N3CCOCC3)cc2NC1=O (configuration not stated) | inactive: 6.18%
64 | O=C(NCc1ccncc1)C1CCN(C(=O)c2cccc(Cl)c2)CC1 | inactive: 3.04%
65 | COc1cc(OC)c(C(=O)OCN2C(=O)c3ccccc3C2=O)cc1OC | inactive: 35.5%
66 | CN(C)[C@@H]1CCC[C@@H]1OC(=O)C(c1ccccc1)c1ccccc1 | inactive: -1.7%

Row | Structure (SMILES) | growth rescue (activation)
67 | Cc1ccc(S(=O)(=O)Nc2cccc(C(=O)N3CCOCC3)c2)cc1 | inactive: 4.91%
68 | COc1cc(/C=C(/C(=O)O)c2ccc(-c3ccccc3)cc2)cc(OC)c1OC | inactive: 20.7%
69 | S=c1[nH]c2cc(Cl)c3cccnc3c2o1 | inactive: 9.34%
70 | CCCCOCC1CC(CC#CCN2CCCCC2)C(=O)O1 (configuration not stated) | inactive: 1.1%
71 | Nc1c(N2CCCC2)c2ccccc2oc1=O | inactive: 0.355%
72 | CC(OC(=O)c1c(F)cccc1F)C(=O)NCCC1=CCCCC1 (configuration not stated) | inactive: 9.01%
73 | Cc1cc(-c2csc(N)n2)c(C)n1Cc1ccco1 | inactive: -2.88%
74 | COc1ccc(NC(=O)c2ccc(-c3c(C)noc3C)c3ccoc23)cn1 | inactive: 21.2%
75 | COc1cccc(Nc2nc(C(N)CC(C)C)cs2)n1 (configuration not stated) | inactive: -2.68%
76 | Cc1ccc(NS(=O)(=O)c2ccc3[nH]c(=O)c(=O)[nH]c3c2)cc1Cl | inactive: 2.58%
77 | COc1ccc(CCNC(=O)COC(=O)c2cc(=O)[nH]c3ccccc23)cc1 | inactive: 12.3%
78 | COc1ccc(CN=C(NS(=O)(=O)c2cccs2)SC)cc1 | inactive: 31%
79 | COc1cc(C(=O)Nc2cc(-c3nc4cc(C)ccc4o3)ccc2C)cc(OC)c1OC | inactive: 20.9%
80 | CCN(CC)CCN(C(=O)Cn1nnc(-c2ccc(C)o2)n1)C(C(=O)NC(C)(C)C)c1cccs1 (configuration not stated) | inactive: 5.7%
81 | CC1(C)CC(=O)C(c2c[nH]c3ccccc23)C(=O)C1 | inactive: 9.77%
82 | Nc1c(-c2nc(-c3ccncc3)no2)nnn1CC(=O)Nc1ccccc1 | inactive: 8.09%
83 | COc1cc(NS(=O)(=O)c2cc(C(=O)N3CCN(C(C)=O)CC3)ccc2OC)cc(OC)c1 | inactive: 8.49%
84 | FC(F)(F)c1cc(-c2ccccc2)nc2nc(N3CCOCC3)sc12 | inactive: 3.25%
85 | O=C(CCN1CCCCC1)N/N=C/c1c[nH]c2ccccc12 | inactive: 13.8%
86 | COc1ccccc1/C=C/C=N/NC(=O)c1ccco1 | inactive: 12.7%
87 | Cc1ccc(CN2CCSc3ccc(C(=O)NCc4ccco4)cc32)cc1 | inactive: 8.18%
88 | CCOC(=O)/C=C/C(=O)Nc1cc(S(=O)(=O)Nc2ccc(OC)cc2)ccc1N1CCOCC1 | inactive: 29%

Row | Structure (SMILES) | growth rescue (activation)
89 | Cn1c(SCC(=O)Nc2ccc3nc(SCC(=O)NC4CC4)sc3c2)nnc1-c1ccccc1 | inactive: 22.5%
90 | O=C(N/N=C/c1ccc(OCC(=O)N2CCCCC2)cc1)c1ccccc1O | inactive: 5.29%
91 | COc1ccc(/C=C/C(=O)NCCOc2ccc(C)cc2)cc1 | inactive: 40.2%
92 | CCc1ccc(NCc2cccn2-c2nnc(N3CCCCCC3)s2)cc1 | inactive: -5.33%
93 | Cc1cccc(OCC(O)CN2CCN(CCN3C(=O)c4cccc5cccc(c45)C3=O)CC2)c1C (configuration not stated) | inactive: -4.59%
94 | COc1ccc(C(=O)NC(=S)N2CC(C)OC(C)C2)cc1OC (configuration not stated) | inactive: 4.3%
95 | O=C(COC(=O)c1ccc(F)c(S(=O)(=O)N2CCOCC2)c1)c1ccc(Br)cc1 | inactive: 21.5%
96 | CC1=C(C(=O)OCC2CCCO2)C(c2ccc(C)o2)C2=C(CC(c3ccc(F)cc3)CC2=O)N1 (configuration not stated) | inactive: 22.1%
97 | COc1ccc(C(CNC(=O)Cc2cccs2)N(C)C)cc1 (configuration not stated) | inactive: 4.93%
98 | O=C(c1ccco1)N1CCc2ccccc21 | inactive: 17.3%
99 | Cc1ccccc1NC(=O)CSc1nc2[nH]c(=O)cc(O)c2s1 | inactive: 11.3%
100 | COc1ccc(N/C=C/C(=C(C#N)C#N)N(C)C)cc1 | inactive: -6.98%
101 | O=C1c2cc(F)ccc2-n2c1nc1ccccc1c2=O | inactive: 7.63%
102 | Cc1ccc(C)c(CN2C(=O)c3ccccc3S(=O)(=O)c3ccc(C(=O)N4CCN(c5ccccn5)CC4)cc32)c1 | inactive: 8.11%
103 | CC(=O)Nc1ccc(NC(=O)C(C)OC(=O)[C@@H]2CCCN2C(=O)c2cccs2)cc1 (some centres not stated) | inactive: 7.04%
104 | COC(=O)c1ccccc1NC(=S)N(Cc1ccc2c(c1)OCO2)Cc1cc2cc(C)ccc2[nH]c1=O | inactive: 18.4%
105 | CCCC(=O)Nc1ccc(C(=O)NCc2ccccn2)cc1 | inactive: 2.02%
106 | N=c1c2c3c(sc2ncn1N)CCCC3 | inactive: 17%
107 | O=C(COc1ccccc1)NC(=S)Nc1cccc(NC(=O)c2ccccc2Cl)c1 | inactive: -5.01%
